This note sets out measurements from article PMC6212790.

Some of the results follow. At the low end of the ranking the order means little.

The target of the assay is T1, GST-Rok-C97-191 (UniProt O34857).
T1 sequence: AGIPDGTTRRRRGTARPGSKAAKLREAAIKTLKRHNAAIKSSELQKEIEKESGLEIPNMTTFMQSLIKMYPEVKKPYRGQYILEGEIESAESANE
In words: protein binding microarray.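 Also: rank score from −0.5 (least bound) to 0.5 (best bound).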 Conditions: Rok is a gene silencer of Bacillus subtilis; high values mean tight binding; most listed sequences are background and not binding sites; double strand, one strand shown.
On to CGAAGCAG, for which the binding signal is -0.238 E-score.

As for GGATTATA, the binding signal worked out at 0.0636 E-score.

Consider AGAGCCCG, for which the binding signal was -0.188 E-score.

ATAATGTC came in with a binding signal of 0.112 E-score.

Consider CCGTTGTA, for which the binding signal was determined as 0.155 E-score.

Sequence ATAAAGAG displayed a binding signal of -0.176 E-score.

As for ACAAGTCT, the binding signal was -0.182 E-score.

On to CAGAGAGG, for which the binding signal is -0.134 E-score.

Sequence AAACACGG registered a binding signal of 0.0678 E-score.

For AGGTAAGG, the binding signal was -0.181 E-score.

The sequence ATTCTAAA showed a binding signal of 0.222 E-score.

In turn, AGTCGCAC had a binding signal of -0.126 E-score.

GATTATCA registered a binding signal of 0.135 E-score.

As for AAACAGAC, the binding signal was -0.0177 E-score.

The sequence ATTTGTGC returned a binding signal of -0.173 E-score.

As to AGGGATCC, the binding signal is -0.161 E-score.

ATGCTCCA: the binding signal is 0.0226 E-score.

In the case of CGACCTGC, the binding signal was -0.174 E-score.

With AACCGAAC, the binding signal is 0.112 E-score.

For GTACGCCA, the binding signal is -0.0805 E-score.

CAACTGCC gave a binding signal of -0.153 E-score.

CCCGACCG: the binding signal was -0.321 E-score.

Turning to ACACGTCA, the binding signal was -0.0692 E-score.

Take AGCAACAC: the binding signal is 0.0251 E-score.

Turning to ACGGTGCG, the binding signal was -0.12 E-score.

As to ATACATGC, the binding signal was 0.219 E-score.

In turn, AGGCAAGC came in with a binding signal of -0.149 E-score.

The sequence CCCGCGAA displayed a binding signal of -0.0413 E-score.

Consider CCAGCTGG, for which the binding signal is -0.132 E-score.

With GACGGACA, the binding signal is -0.0313 E-score.

GTAACTAA came in with a binding signal of 0.353 E-score.

ATTATTTA: the binding signal was determined as 0.37 E-score.

The sequence ACGTCGGA had a binding signal of 0.0482 E-score.

GAACTGGC registered a binding signal of -0.0949 E-score.

As to ATGTTAGC, the binding signal came out at 0.164 E-score.

The sequence CTCTAGTC yielded a binding signal of 0.171 E-score.

In turn, GATAGCGC displayed a binding signal of 0.191 E-score.

For the sequence ATTGATCC, the binding signal was found to be 0.169 E-score.

The sequence CATCTTTA displayed a binding signal of 0.057 E-score.

For TATCCACA, the binding signal stood at 0.0065 E-score.

For the sequence GAAAACAC, the binding signal stood at 0.0552 E-score.

In turn, AAGGCAGT yielded a binding signal of 0.166 E-score.

As to CTACATGA, the binding signal was 0.283 E-score.

Regarding ATACAAGG, the binding signal was -0.00241 E-score.

The sequence GCCGCTAC registered a binding signal of 0.199 E-score.

In turn, AGTGTGAT yielded a binding signal of 0.0321 E-score.

With CCGAGCCC, the binding signal is -0.455 E-score.

With AGGCACAT, the binding signal was -0.0618 E-score.

GTGTACCA displayed a binding signal of 0.0271 E-score.

In the case of AGAAAAAA, the binding signal stood at 0.111 E-score.

Sequence AAAGCTAA showed a binding signal of 0.0397 E-score.

As to CACGGCCA, the binding signal was -0.119 E-score.

The sequence CACAGATA yielded a binding signal of 0.161 E-score.

For TAGCCTAA, the binding signal is -0.0305 E-score.

For the sequence TTATCGAA, the binding signal amounted to 0.103 E-score.

The sequence GACTGCGA showed a binding signal of -0.0419 E-score.

With GGAACTGA, the binding signal was 0.0662 E-score.

In the case of ACAGGATA, the binding signal is -0.0469 E-score.

On to ATCTCCTG, for which the binding signal is -0.0812 E-score.

Consider CGGGCCAC, for which the binding signal is -0.146 E-score.

The sequence CGCGGACG came in with a binding signal of -0.207 E-score.

Sequence ACGAGGGG had a binding signal of -0.235 E-score.

ATTGACAA: the binding signal is -0.116 E-score.

The sequence CAAGTGAG showed a binding signal of 0.02 E-score.

GCTTGGCC came in with a binding signal of -0.411 E-score.

With GTAATGGA, the binding signal worked out at 0.14 E-score.

On to ATAAAATC, for which the binding signal worked out at 0.28 E-score.

ACTCATTA had a binding signal of -0.0882 E-score.

Sequence CAATGCTA yielded a binding signal of 0.195 E-score.

On to CACCGAAG, for which the binding signal was -0.119 E-score.

Consider GAATCGCA, for which the binding signal was -0.139 E-score.

AGCTCGAC yielded a binding signal of -0.106 E-score.

Consider ATGGGGGG, for which the binding signal was -0.432 E-score.

AAGTGTAC yielded a binding signal of 0.116 E-score.

On to ACCTACGA, for which the binding signal amounted to 0.049 E-score.

Take CTCCTAAG: the binding signal worked out at 0.0928 E-score.

For GAGAGTGC, the binding signal was -0.103 E-score.

For the sequence CGCACATA, the binding signal was determined as 0.0511 E-score.

Sequence CGACTCCC yielded a binding signal of -0.342 E-score.

Consider TAGGCCGA, for which the binding signal was -0.0449 E-score.

Sequence AGACGCAC had a binding signal of -0.229 E-score.

ACATTGGT came in with a binding signal of -0.0259 E-score.

Take CGAAAAAA: the binding signal was -0.0363 E-score.

ATTGTCTA returned a binding signal of 0.205 E-score.

AATAATGA came in with a binding signal of 0.0696 E-score.

Consider GGCTCAAA, for which the binding signal is -0.122 E-score.

The sequence AGACTTAT yielded a binding signal of 0.146 E-score.

CAGTCCAA had a binding signal of 0.000691 E-score.

In turn, GAGGAAGA showed a binding signal of 0.127 E-score.

Consider GGCGCCGA, for which the binding signal was -0.077 E-score.

The sequence ATCCACGC gave a binding signal of -0.0769 E-score.

For the sequence CCTATAAC, the binding signal is 0.236 E-score.

In the case of CACAGAAC, the binding signal was -0.0764 E-score.

For the sequence ATAGCAAT, the binding signal was found to be 0.19 E-score.

In the case of GCGCACAC, the binding signal is -0.245 E-score.

TAAGCTGA: the binding signal was -0.117 E-score.

ACCAGCTG had a binding signal of 0.00621 E-score.

On to AAGTGGAA, for which the binding signal was -0.0578 E-score.

In turn, GGTATCTA gave a binding signal of 0.23 E-score.

ATGATCGG returned a binding signal of -0.11 E-score.

The sequence CTGCAGGC registered a binding signal of -0.199 E-score.

CTCCGGAA: the binding signal amounted to 0.00646 E-score.

As to TGACTCCA, the binding signal was -0.0987 E-score.

Take GATCTTCA: the binding signal is -0.00463 E-score.

The sequence GCGGACTA returned a binding signal of 0.0993 E-score.

On to AATGCGCC, for which the binding signal is -0.0562 E-score.

With AGCTGATA, the binding signal came out at 0.181 E-score.

CGATACCG showed a binding signal of 0.13 E-score.

In turn, CACAGCTC registered a binding signal of -0.152 E-score.

Sequence GGTAAGGA displayed a binding signal of -0.00191 E-score.

Turning to CGACATGA, the binding signal came to 0.149 E-score.

For the sequence AAGGTTTG, the binding signal was determined as 0.0596 E-score.

Take TACAACTA: the binding signal worked out at 0.338 E-score.

Consider ATATGAAT, for which the binding signal is -0.0404 E-score.

Take CATTCAAA: the binding signal was -0.055 E-score.

On to CCCGGGTA, for which the binding signal is -0.0896 E-score.

With ACTTTAAT, the binding signal is 0.104 E-score.

As to GAAGGGGA, the binding signal is -0.234 E-score.

ACGTGTTA: the binding signal turned out to be 0.0556 E-score.

Regarding CCGAAGGA, the binding signal is -0.172 E-score.

As to TAGTATGA, the binding signal was determined as 0.25 E-score.

Regarding CAAGGAGC, the binding signal was -0.312 E-score.

Take CTCACAGC: the binding signal is -0.264 E-score.

ATATTAAT came in with a binding signal of 0.307 E-score.

Turning to AAGTCTCC, the binding signal is -0.296 E-score.

In turn, GAAGCATC registered a binding signal of -0.134 E-score.

Regarding CACAAGAC, the binding signal was -0.188 E-score.

Sequence TGATCCAA had a binding signal of -0.0389 E-score.

For CGTACGAA, the binding signal was -0.0107 E-score.

AATCGCTA gave a binding signal of 0.111 E-score.

Take ACGAATCG: the binding signal was -0.151 E-score.

Sequence AAAATGTA displayed a binding signal of 0.316 E-score.

In turn, ACACAAAC registered a binding signal of 0.131 E-score.

Turning to CATGCTAA, the binding signal came to 0.084 E-score.

As for CTCTTCAA, the binding signal was -0.0669 E-score.

Take AAGCTTGT: the binding signal is 0.109 E-score.

Take AGGGATAA: the binding signal came to 0.0979 E-score.

Take AACATCGA: the binding signal is 0.134 E-score.

For the sequence GTTACAGA, the binding signal is 0.21 E-score.

For GGGACCGA, the binding signal is -0.184 E-score.

As to AATTTGGG, the binding signal is -0.101 E-score.

GCCGGCAC yielded a binding signal of -0.227 E-score.

The sequence ACTCGGCA gave a binding signal of -0.122 E-score.

Regarding ACTGACAT, the binding signal is -0.113 E-score.

Regarding CGGCTCTA, the binding signal was found to be 0.00628 E-score.

For the sequence CCACACCG, the binding signal was determined as 0.0146 E-score.

AATTCATG displayed a binding signal of 0.131 E-score.

With AGACTCCT, the binding signal is -0.067 E-score.

On to CAGTGTGC, for which the binding signal is -0.172 E-score.

In the case of CCACTGTA, the binding signal turned out to be 0.137 E-score.

CCAACCAC returned a binding signal of -0.176 E-score.

In turn, ATAGCGTA returned a binding signal of 0.195 E-score.

Turning to GACCCAGC, the binding signal is -0.165 E-score.

Regarding CATATGAC, the binding signal was -0.0112 E-score.

Sequence ACCCCATG had a binding signal of -0.199 E-score.

For the sequence GCGGCCTA, the binding signal was -0.313 E-score.

The sequence GCGCTTGA yielded a binding signal of -0.0679 E-score.

GGGAAAAC yielded a binding signal of 0.0871 E-score.

Consider CCCGGACC, for which the binding signal is -0.312 E-score.

On to CAACCCTA, for which the binding signal is -0.114 E-score.

In turn, ACTACACT came in with a binding signal of 0.23 E-score.

As for AATGGGCT, the binding signal was -0.0767 E-score.

Turning to CAATCACA, the binding signal worked out at 0.191 E-score.

As for GCTATGAC, the binding signal is 0.185 E-score.

Turning to AACTCGCG, the binding signal is -0.0933 E-score.

Regarding AGAGCAAG, the binding signal was -0.131 E-score.

As to CCTAGGGA, the binding signal is -0.0937 E-score.

The sequence GAGAGTCC had a binding signal of -0.107 E-score.

The sequence CACTGGCG registered a binding signal of -0.13 E-score.

In turn, CCCCTGAC came in with a binding signal of -0.315 E-score.

ACCATGGG had a binding signal of -0.19 E-score.

For the sequence CCGCTCGA, the binding signal was -0.159 E-score.
